The source of these data is PubChem BioAssay AID1645882 (National Center for Advancing Translational Sciences (NCATS), 2021).

The whole screen tested about 16,000 compounds, of which about 120 (0.75%) were called active. About 4% were inconclusive and are not listed. Calls come from the whole dose curve; as a rule, active = well fitted inhibition curve with a large enough effect; inconclusive = small, poorly fitted or top-dose-only effect; inactive = no such curve, though single readings can be large or run the other way. The list shows a part of the results.

UniProt O95398, sequence (O95398 whole entry, looked up): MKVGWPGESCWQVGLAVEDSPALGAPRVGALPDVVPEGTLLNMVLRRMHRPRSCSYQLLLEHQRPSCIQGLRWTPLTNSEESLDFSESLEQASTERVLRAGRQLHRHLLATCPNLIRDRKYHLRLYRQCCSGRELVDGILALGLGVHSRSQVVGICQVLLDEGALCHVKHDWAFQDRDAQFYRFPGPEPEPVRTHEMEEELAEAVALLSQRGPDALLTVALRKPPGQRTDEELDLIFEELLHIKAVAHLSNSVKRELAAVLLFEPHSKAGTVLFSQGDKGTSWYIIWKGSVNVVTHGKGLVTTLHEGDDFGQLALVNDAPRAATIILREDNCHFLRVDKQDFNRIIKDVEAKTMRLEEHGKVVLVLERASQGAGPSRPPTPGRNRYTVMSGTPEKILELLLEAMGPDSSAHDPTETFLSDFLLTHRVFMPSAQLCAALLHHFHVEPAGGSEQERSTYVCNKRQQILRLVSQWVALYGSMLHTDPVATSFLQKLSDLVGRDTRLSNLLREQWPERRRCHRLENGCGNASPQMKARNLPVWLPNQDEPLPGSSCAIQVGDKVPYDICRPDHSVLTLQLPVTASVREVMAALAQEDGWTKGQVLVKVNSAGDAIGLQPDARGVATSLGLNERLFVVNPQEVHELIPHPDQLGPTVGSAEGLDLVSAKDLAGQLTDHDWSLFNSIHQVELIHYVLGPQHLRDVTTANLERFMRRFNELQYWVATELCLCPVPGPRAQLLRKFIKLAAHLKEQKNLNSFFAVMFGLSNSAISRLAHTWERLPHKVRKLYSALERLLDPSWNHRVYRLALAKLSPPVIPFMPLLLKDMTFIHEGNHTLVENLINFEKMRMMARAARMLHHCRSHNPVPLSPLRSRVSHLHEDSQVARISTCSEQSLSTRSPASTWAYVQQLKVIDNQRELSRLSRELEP

This test has as its target Rap guanine nucleotide exchange factor 3 (Homo sapiens) (UniProt O95398). The test is described as follows: Validation qHTS for antagonist of cAMP-regulated guanine nucleotide exchange factor 3 (EPAC1). Note: nearly all actives have a fitted effect of over 75% in size. Conditions: EPAC1 Rap1B-BODIPY-GDP exchange, fluorescence; series mostly up to 150 µM; activity change, negative = inhibition: at the top concentration. The method in brief:
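EPAC1 (100 nM) mixed with 250 nM RAP1B-BODIPY-GDP and 50 uM GDP; compounds in concentration series, 5 min at room temperature. Fluorescence (ex 480/em 540 nm) read every 5 min for 30 min; normalized to ATA control and DMSO.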
For orientation: In qHTS, concentration-response curves come from the screen itself.
In the case of `N[C@H](CC(=O)O)C(=O)O`, the activity change, negative = inhibition entry was “inactive”.

Regarding `Cc1ccc(SCCN2CCC(O)CCC2=O)cc1` (stereo not given), the “activity change, negative = inhibition” value is inactive: 0.106%.

As to `CCOC(=O)N1CCC(=C2c3ccc(Cl)cc3CCc3cccnc32)CC1`, the activity change, negative = inhibition entry is “inactive”.

As for `Oc1cc(-c2nc3ccccc3s2)cc2c1OCCN(Cc1cccn1-c1ccc(Cl)cn1)C2`, the “activity change, negative = inhibition” value is inactive: 4.69%.

As for `COc1cc2c(cc1OC)C1C(=O)c3c(O)cc4c(c3OC1CO2)C=CC(C)(C)O4` (stereo not given), the “activity change, negative = inhibition” value was inactive: -19%.

As for `COc1ccccc1C(=O)N[C@@H]1c2ccccc2C2(CCN(Cc3nccs3)CC2)[C@H]1OC`, the “activity change, negative = inhibition” value was inactive: 13%.

On to `COc1cc(O)c2c(=O)cc(-c3ccc(OC)c(-c4c(O)cc(O)c5c(=O)cc(-c6ccc(O)cc6)oc45)c3)oc2c1`, for which the “activity change, negative = inhibition” value was inactive: 0.856%.

On to `O=C(NOCC1CC1)c1ccc(F)c(F)c1Nc1ccc(I)cc1Cl`, for which the “activity change, negative = inhibition” value is inactive: 22.6%.

On to `COc1ccc(-c2nc3cnc(N4CCN(C)CC4)nc3n(C3CC3)c2=O)cc1`, for which the “activity change, negative = inhibition” value is inactive: 9.03%.

Regarding `COc1ccc(C(=O)CCC(=O)O)c2ccccc12`, the “activity change, negative = inhibition” value is inactive: 10.2%.

Take `CCCN1CC(CSC)C[C@H]2c3cccc4[nH]cc(c34)C[C@H]21` (stereo not given in full): the “activity change, negative = inhibition” value is inactive: 12.6%.

Take `CCCCN1CCC(n2c(=O)[nH]c3ccccc32)CC1`: the “activity change, negative = inhibition” value is inactive: 4.94% [at 75.8 µM].

Consider `CCCCN1CC[C@H]2C=CC[C@@H](C(=O)Nc3ccc(Cl)cc3Cl)[C@H]2C1=O`, for which the “activity change, negative = inhibition” value was inactive: -4.42%.

`NC(=O)c1ccccc1O`: the “activity change, negative = inhibition” value was inactive: 13.2%.

In the case of `Cc1cccc2cc(CN(C(=O)c3ccc(-c4ccc(F)cc4)cc3)C3CC3)c(N3CCC(O)CC3)nc12`, the “activity change, negative = inhibition” value was inactive: -8.44%.

On to `COc1cc(CN2CCCC(n3cc(C(=O)N4CCCCC4)nn3)C2)cc(OC)c1` (stereo not given), for which the “activity change, negative = inhibition” value is inactive: -2.79%.

Regarding `COCCn1c(=O)c(-c2cccs2)nc2cnc(N3CCNCC3)nc21`, the “activity change, negative = inhibition” value is inactive: -1.88%.

Turning to `CCOC(=O)c1ccc(NC(=O)CN2CCCCC2)cc1`, the “activity change, negative = inhibition” value was inactive: 1.27%.

As to `O=C([C@@H]1C[C@@H](Sc2nc3ccccc3[nH]2)CN1Cc1c(F)cccc1F)N1CCOCC1`, the “activity change, negative = inhibition” value is inactive: 13.7%.

As for `COc1ccc(CNc2cc(-c3cccnc3)ncn2)c(OC)c1`, the “activity change, negative = inhibition” value was inactive: 7.91%.

As for `COCCn1c(=O)c(C)nc2cnc(OCc3ccccc3)nc21`, the “activity change, negative = inhibition” value is inactive: 4.13%.

As for `O=C(OCCN1CCOCC1)C1(c2ccccc2)CCCCC1`, the activity change, negative = inhibition result was “inactive”.

On to `CC(C)C[C@H](NC(=O)[C@H](Cc1ccccc1)NC(=O)c1cnccn1)B(O)O`, for which the activity change, negative = inhibition result is “inactive”.

For the compound `COC(F)(F)C(Cl)Cl`, the “activity change, negative = inhibition” value is inactive: 5.09%.

For the compound `O=C1C(c2c(O)[nH]c3ccccc23)=Nc2ccccc21`, the activity change, negative = inhibition result is “inactive”.

On to `O=C(c1csnn1)N1CCC2(CCCN(Cc3ccccc3)C2)CC1`, for which the “activity change, negative = inhibition” value is inactive: -3.75%.

As to `CO[C@@H]1[C@@H](O[C@@H]2O[C@H](C)[C@@H](O[C@H]3C[C@@](C)(O)[C@@H](O)[C@H](C)O3)[C@H](N(C)C)[C@H]2O)[C@@H](CC=O)C[C@@H](C)[C@@H](O[C@@H]2CC[C@H](N(C)C)[C@@H](C)O2)/C=C/C=C/C[C@@H](C)OC(=O)C[C@H]1O`, the “activity change, negative = inhibition” value is inactive: 10.8% [at 75.8 µM].

As for `CCNc1ncc2nc(CCc3ccccc3)c(=O)n(C3CC3)c2n1`, the “activity change, negative = inhibition” value is inactive: 5.16%.

`CC(C)C(C)/C=C/C(C)C1CCC2C3=CC=C4CC(O)CCC4(C)C3CCC21C` (stereo not given): the “activity change, negative = inhibition” value is inactive: -16.9%.

Regarding `COc1ccc(-c2coc3cc(O)ccc3c2=O)cc1`, the activity change, negative = inhibition result was “inactive”.

Turning to `Cc1cnc(-n2ncc(C(=O)N(C)Cc3cccc4ncccc34)c2C(C)C)nc1-c1ccc(F)cc1`, the “activity change, negative = inhibition” value was inactive: 6.03%.

For the compound `O=c1c(-c2ccccc2)nc2cnc(N3CCNCC3)nc2n1-c1ccccc1`, the “activity change, negative = inhibition” value is inactive: 1.09%.

In the case of `COc1ccccc1CN1CCCC(n2cc(C(=O)N3CCCCC3)nn2)C1` (stereo not given), the “activity change, negative = inhibition” value is inactive: 1.35%.

Turning to `Oc1c(Br)cc(Br)c2cccnc12`, the “activity change, negative = inhibition” value is inactive: 15.2%.

For `CCC(=O)O[C@H]1CC[C@H]2[C@@H]3CCc4cc(O)ccc4[C@H]3CC[C@]12C`, the “activity change, negative = inhibition” value is inactive: -18%.

Regarding `CS(=O)(=O)Nc1cccc(-c2nc(Nc3ccc(F)cc3)c3ccccc3n2)c1`, the “activity change, negative = inhibition” value is inactive: 14.3%.

`CC(C)NC(=O)N1CC[C@@]2(CCCN(C(=O)c3ccco3)C2)C1`: the “activity change, negative = inhibition” value was inactive: 2.56%.

Take `Cc1cnc(CNc2ccnc(-c3cccnc3)n2)cn1`: the “activity change, negative = inhibition” value was inactive: 4.9%.

For the compound `COCCNc1ncnc2ccc(-c3ccc(N(C)C)cc3)cc12`, the “activity change, negative = inhibition” value was inactive: 15.1%.

Consider `O=C(NCCN1CCOCC1)c1cnn(-c2nccc(-c3ccccc3C(F)(F)F)n2)c1C1CC1`, for which the “activity change, negative = inhibition” value is inactive: 8.89%.

For `CCCCC/C(C=O)=C\c1ccccc1`, the “activity change, negative = inhibition” value was inactive: 12.8%.

In the case of `Clc1ccc2c(c1)C(N1CCNCC1)=Nc1ccccc1O2`, the activity change, negative = inhibition result is “inactive”.

On to `O=C(Nc1ccccc1)N1CC[C@@]2(CCCN(C(=O)c3cc(C(F)(F)F)cc(C(F)(F)F)c3)C2)C1`, for which the “activity change, negative = inhibition” value is inactive: -19.3%.

In the case of `CC(C)N=C(N)/N=C(\N)Nc1ccc(Cl)cc1`, the “activity change, negative = inhibition” value is inactive: 5.42% [at 75.8 µM].

Consider `C[C@@H](CN(C)C[C@H]1C(=O)O[C@@H]2C[C@@]3(C)CCC[C@]4(CO4)C3CC21)[C@H](O)c1ccccc1` (stereo not given in full), for which the “activity change, negative = inhibition” value is inactive: 11.7%.

Consider `O=C(Cn1ccnc1[N+](=O)[O-])NCc1ccccc1`, for which the “activity change, negative = inhibition” value is inactive: 14.5%.

Regarding `Cc1ncc2c(c1CNC(=O)c1ccccc1F)CCN(C(=O)c1[nH]c3ccc(Cl)cc3c1C)C2`, the “activity change, negative = inhibition” value was inactive: -18.3%.

`O=C1c2ccccc2C(=O)C1c1ccccc1`: the activity change, negative = inhibition entry was “inactive”.

Take `CC1(C)OC2C[C@](O)(C(N)=O)C[C@H](O)[C@H]2O1` (stereo not given in full): the “activity change, negative = inhibition” value is inactive: 11.3%.

As for `COc1ccc(S[C@@H](CCN2CC[C@H](O)CCC2=O)c2ccccc2)cc1`, the “activity change, negative = inhibition” value was inactive: 2.01%.

With `CC(C)C[C@@H](CO)N1CCN(Cc2ccc(O)cc2)CCC1=O`, the “activity change, negative = inhibition” value is inactive: -19.5%.

Turning to `COCc1c(C(=O)N2CCC(N(C)C)C2)cnn1-c1ncc2c(n1)-c1ccccc1CCC2` (stereo not given), the “activity change, negative = inhibition” value was inactive: 19.7%.

For the compound `COc1cccc(Nc2ncc3nc(CCc4ccccc4)c(=O)n(C4CC4)c3n2)c1`, the “activity change, negative = inhibition” value was inactive: 29.4%.

Regarding `COc1ccc(CN2CCOc3ccc(CN4CCC(O)(c5cccnc5)CC4)cc3C2)cc1OC`, the “activity change, negative = inhibition” value is inactive: 0.582%.

As for `O=C(O)CCc1nc(-c2ccccc2)c(-c2ccccc2)o1`, the activity change, negative = inhibition entry was “inactive”.

For `N#CC[C@H](Cc1ccccc1)N1CC[C@@H](NC(=O)OCc2ccccc2)CCC1=O`, the “activity change, negative = inhibition” value was inactive: 9.14%.

In the case of `NCCCCC(=O)O`, the activity change, negative = inhibition entry was “inactive”.

As to `c1ccc(CC2=NCCN2)cc1`, the activity change, negative = inhibition result is “inactive”.

For the compound `CC(=O)OC1CC2C(C)(C)C(O)CC[C@@]2(C)C2CC[C@@]3(C)C(c4ccoc4)OC(=O)C4OC43[C@]12C` (stereo not given in full), the “activity change, negative = inhibition” value was inactive: 1.06%.

Consider `C/C=C(\C)C(=O)OC1C(OC(=O)C2(C)OC2C)c2cc3ccc(=O)oc3cc2OC1(C)C` (stereo not given), for which the “activity change, negative = inhibition” value was inactive: 8.01%.

In the case of `CC(C)(Oc1ccc(CCNC(=O)c2ccc(Cl)cc2)cc1)C(=O)O`, the activity change, negative = inhibition entry was “inactive”.

`OCCN1CCN(CCCN2c3ccccc3Sc3ccc(C(F)(F)F)cc32)CC1`: the activity change, negative = inhibition result was “inactive”.

In the case of `O=C(c1ccncc1)N1CCC2(CCCN(c3ncccn3)C2)CC1`, the “activity change, negative = inhibition” value is inactive: 7.97%.

For `Cc1cccnc1-c1cccc2c1OC(CNC(=O)C1CCCc3c1[nH]c1ccccc31)C2` (stereo not given), the “activity change, negative = inhibition” value is inactive: -17.2%.

As for `CCCCCCCCCCCCCC(=O)N[C@H](C)[C@@H](O)c1ccccc1`, the activity change, negative = inhibition was inactive: -10.4% [at 15.3 µM].
